The other results are listed elsewhere or left out. These are further read-outs of the screen, such as a control signal, another cell line or another target. No call is given for them. The list favours compounds with an active or inconclusive main result.
Experiment: growth inhibition of WT strain, primary screen, mitochondrial fusion inhibitor project, WT and mutant strains, chemical genetic (AID 1362); further: tested in S. cerevisiae
Details: mitochondrial fusion phenotypic screen, at 10 µM
Compound COc1ccc(NS(=O)(=O)c2cc(C(=O)O)ccc2C)cc1 has an inhibition of -2.35%.
Compound O=C(Oc1cc2oc(=O)c3c(c2cc1Cl)CCCC3)c1cccs1 has an inhibition of 46.6%.
For CC(C)c1nc(N2CCOCC2)c(C#N)c2c1CCCC2, the inhibition was 40%.
Work on COc1nc(Nc2ccc([N+](=O)[O-])cc2)nc(NC2CCCCC2)n1 yielded an inhibition of 43.2%.
Compound Cc1cc(C)c(NC(=S)NCCCSC2CCCCC2)c(C)c1 has an inhibition of 46.3%.
Compound Cc1cc(N2CCN(C)CC2)nc2ccc(NC(=S)N3CCN(c4ccc(Cl)cc4)CC3)cc12 has an inhibition of 96.9%.
For FC(F)(F)c1ccc(Oc2ccc3ccccc3c2Br)nc1, the inhibition was 25.8%.
Compound Cc1cccc(NC(=O)N(Cc2nc3ccccc3c(=O)[nH]2)C2CCCC2)c1 has an inhibition of 7.06%.
N/C(Cc1ccc(Cl)cc1)=N\OC(=O)c1cccc2ccccc12 showed an inhibition of 91.4%.
Compound C=C(C)c1cccc(C(C)(C)NC(=O)Nc2ccc(Cl)cn2)c1 has an inhibition of 17.5%.
With S=C(NCCSCc1ccccc1Cl)Nc1ccccc1 the inhibition was 38.7%.
CCCC(=O)NC(=S)Nc1cccc(Cl)c1N1CCCCC1 showed an inhibition of 10.4%.
Clc1ccc(CNc2nc(CN3CCOCC3)nc3scc(-c4ccccc4)c23)cc1 gave an inhibition of 17.6%.
Cc1nn(CCC(N)=S)c2nc(-c3cccs3)cc(C(F)(F)F)c12 gave an inhibition of 18.6%.
O=S(=O)(NCC(Nc1ccc(Cl)cc1)c1ccccc1)c1ccc(Cl)cc1 (stereo not given) showed an inhibition of 7.18%.
For COCCCNC(=O)c1cccc(C(=O)NCCCOC)c1, the inhibition was 5.98%.
Work on COC(=O)c1c(NC(=O)c2nc3nc(C)cc(C(F)F)n3n2)sc2c1CCC2 yielded an inhibition of 15.5%.
Work on COc1cc2c(cc1OC)-c1cc3ccc4c(c3c[n+]1CC2)OCO4 yielded an inhibition of 59.2%.
Compound COc1ccccc1-c1nnc(SCC(=O)NCc2c(C)c(Cl)cc(C(C)C)c2O)o1 has an inhibition of 4.39%.
Work on C=CCn1c(=S)[nH]c2scc(-c3ccc(C)o3)c2c1=O yielded an inhibition of 27.2%.
With O=C(CCSCc1ccccc1Cl)N1CCN(c2cccc(Cl)c2)CC1 the inhibition was 38.5%.
Work on O=C(Nc1ccccc1N1CCOCC1)c1cc(F)cc(F)c1 yielded an inhibition of 66%.
Cc1ccc(NC(=S)N(Cc2cccc(Br)c2)CC2CCC(C(=O)O)CC2)cc1Cl (stereo not given) showed an inhibition of 13.1%.
For Cc1nc2cc(NS(=O)(=O)c3c(C)c(C)cc(C)c3C)ccc2s1, the inhibition was 23.8%.
Work on Cc1ccc(C)c(N=Nc2nc3ccccc3n2C)c1 yielded an inhibition of 67.4%.
C=CCNC(=S)N/N=C/c1ccc(C(C)(C)C)cc1 showed an inhibition of 60.2%.
For CC(C)c1ccc(C2CC(=O)c3cnc(N4CCc5ccccc5C4)nc3C2)cc1 (stereo not given), the inhibition was 51.9%.
O=C(CSc1nnnn1-c1ccc(Cl)cc1)N1CCc2ccccc2C1 showed an inhibition of 81%.
O=C(N/N=C/c1ccc[nH]1)c1cc(-c2ccc(Cl)cc2)nc2ccccc12 showed an inhibition of 39.8%.
Cc1cc(N=Cc2cc(Cl)ccc2O)no1 gave an inhibition of 4.67%.
O=[N+]([O-])c1ccc(COc2ccc(-c3[nH]ncc3-c3ccc(Cl)cc3)c(O)c2)cc1 showed an inhibition of 90.3%.
CCN1/C(=C/c2ccc3ccccc3[n+]2CC)C=Cc2ccccc21 showed an inhibition of 75.8%.
For O=[N+]([O-])c1cccnc1N1CCC(c2cc(-c3cccc(C(F)(F)F)c3)n[nH]2)CC1, the inhibition was 33.9%.
Compound C=C(C)COc1ccc(-c2nc(N)nc(C)c2Oc2ccccc2OC)c(O)c1 has an inhibition of 58.9%.
Work on C(=N\N(Cc1ccccc1)c1ccccc1)/c1cccnc1 yielded an inhibition of 28.5%.
With CCN(Cc1ccccc1)C(c1cccs1)c1nnnn1C1CCCCC1 (stereo not given) the inhibition was 14.4%.
S=C(Nc1ccc(Cl)cc1)Nc1cccc2cnccc12 gave an inhibition of 50.4%.
Compound Cn1c(-c2sc3cc(C(F)(F)F)cnc3c2-c2cccs2)n[nH]c1=S has an inhibition of 35.4%.
In the case of Cc1csc(=Nc2cccnc2)n1CC1CCCCC1, the inhibition is reported as 46.1%.
In the case of Cc1ccccc1CN1CCc2c(OCC(=O)N3CCCc4ccccc43)cccc2C1=O, the inhibition is reported as 29.8%.
With CSc1nncn1/N=C/c1ccc2c(c1)OCO2 the inhibition was 0.91%.
With O=C(O)c1cc(-c2ccc(/C=C3/SC(=S)N(Cc4ccccc4)C3=O)o2)ccc1Cl the inhibition was 32.2%.
Work on N#CC(c1cccc(Cl)c1)c1ccc2c(C(F)(F)F)cc(C(F)(F)F)nc2n1 (stereo not given) yielded an inhibition of 80%.
In the case of O=c1cc(N2CCCCC2)c(-c2ccccc2)nn1Cc1c(Cl)cccc1Cl, the inhibition is reported as 33.2%.
For Cc1ccc(NC(=S)Nc2ccc(OC(F)F)c(Cl)c2)cc1Cl, the inhibition was 36.1%.
Compound O=C1Nc2ccc(Br)cc2C12NNc1ccccc1O2 (stereo not given) has an inhibition of 82%.
Compound O=C(OC(C(=O)Nc1cc(Cl)cc(Cl)c1)c1ccccc1)C1=COCCO1 (stereo not given) has an inhibition of 23.1%.
In the case of O=C(N/N=C/c1ccccn1)c1[nH]c2ccc([N+](=O)[O-])cc2c1-c1ccccc1, the inhibition is reported as 18.8%.
Compound CCCCN(CC)S(=O)(=O)c1ccc(C(=O)N(CCCN(C)C)c2nc3cc(C)cc(C)c3s2)cc1 has an inhibition of 68.5%.
Work on COc1ccc(CC(=O)N2CCOCC2)cc1OC yielded an inhibition of 16.6%.
In the case of CC(C)Oc1ccc(C(=O)Nc2cccc3cccnc23)cc1, the inhibition is reported as 40%.
In the case of O=C(/C(=C/O)N=Nc1ccccc1)c1ccc(Cl)cc1, the inhibition is reported as 25%.
For Cc1ccc(OCC(=O)N2CCN(c3nnc(-c4ccc(C)cc4)c4ccccc34)CC2)cc1, the inhibition was 50.2%.
CCOC(=O)C1(S(=O)(=O)c2ccc(Cl)cc2)CCN(Cc2ccc(Cl)cc2)CC1 showed an inhibition of 60.2%.
Work on O=C(COc1ccc(Cl)cc1Cl)Nc1ccccn1 yielded an inhibition of 61.1%.
Cc1nn(-c2cc(C)c3ccccc3n2)c2c1C1C(C2)C1(C)C (stereo not given) gave an inhibition of -0.27%.
Compound OCCNCc1cc(Br)ccc1OCc1ccc(Cl)cc1Cl has an inhibition of 33.2%.
O=C(NCCCN1CCOCC1)c1ccccc1-c1ccccc1 gave an inhibition of -5.93%.
For CCOC(=O)C(C)c1nc2ccccc2[nH]c1=O (stereo not given), the inhibition was 13.6%.
Cc1cccc(CN2CCN(C(c3ccccc3)c3ccc(Cl)cc3)CC2)c1 (stereo not given) gave an inhibition of 56.8%.
With CCNc1nc(Sc2ccc(C)cc2)cc(C(F)(F)F)n1 the inhibition was 46.5%.
Cc1cccc(C(=O)CC(=O)c2cc(Cl)ccc2O)c1 showed an inhibition of 56.2%.
With COc1ccc(-c2nc3ccccc3s2)cc1O the inhibition was 0.14%.
For CC[n+]1ccc(/C=C/c2ccc(N(C)C)cc2)c2ccccc21, the inhibition was 83.5%.
CC(C)C(=O)NCCc1nc2ccccc2n1CCCOc1ccc(Cl)cc1 gave an inhibition of 2.99%.
Compound O=C(Nn1c(C2CCCCC2)nc2ccccc2c1=O)c1ccc(Cl)c([N+](=O)[O-])c1 has an inhibition of 22.4%.
Work on CSc1nc(C(=O)N2CCc3c([nH]c4ccccc34)C2c2ccccn2)cs1 (stereo not given) yielded an inhibition of 39.9%.
Work on Cc1nc(NC(=O)CC(C)C)sc1-c1csc(Nc2ccc(Cl)cc2)n1 yielded an inhibition of 63.1%.
Work on COc1ccc(C)cc1S(=O)(=O)Nc1ccc(F)cc1 yielded an inhibition of 21.4%.
With COC(=O)C1C(c2ccccc2)C(C(=O)OCc2ccco2)C1c1ccccc1 (stereo not given) the inhibition was 64.7%.

Reference: PubChem BioAssay AID1362 (SRMLSC, 2008)
